Among all 43,000 compounds or so, about 200 (0.47%) were called active. Another 12% or so got no clear call; they are omitted. Calls come from the whole dose curve; as a rule, active = well fitted cell-killing curve with a large enough effect; inconclusive = small, poorly fitted or top-dose-only effect, or effect the other way; inactive = flat fitted curve, though single readings scatter. This is one part of the list.
test: Cell viability qHTS assay in S16 Pmp22-F2sN cells; details: S16 Pmp22-F2sN Schwann cells viability, CellTiter-Glo, 24 h; series mostly up to 57.5 µM; activity change, negative = cytotoxicity: at the top concentration; note: nearly all actives have a fitted effect of over 65% in size
Procedure, shortened: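 Used to flag compounds lowering reporter output through toxicity, this quantitative HTS measures ATP-based CellTiter-Glo luminescence in S16 Pmp22-F2sN Schwann cells after 24 h compound exposure at 37C.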
% is set by controls: 0 for no effect and ±100 for the full control effect.

Row | Compound | activity change, negative = cytotoxicity
1 | CC1CN(C(=O)N2CCC(C(=O)NCc3ccco3)CC2)c2cc(Cl)ccc2O1 (centres undefined) | inactive: -5.45%
2 | Cc1ccc(NC(=O)CN2C(=O)CCc3cc(S(=O)(=O)N4CCCCC4)ccc32)cc1N(C)C | inactive: -23.5%
3 | COc1ccc(NC(=O)c2cc(-c3ccccc3O)no2)cc1 | inactive: -3.17%
4 | CCCNc1ccc(-c2nc(-c3ccncc3)no2)cc1[N+](=O)[O-] | inactive: 1.59%
5 | CCOc1ccc(-c2cc(C(=O)NCc3ccc(C)cc3)c3ccccc3n2)cc1 | inactive: -0.492%
6 | CCOc1ccc(Cl)cc1C1CC(=O)Nc2cc(OC)c(OC)c(OC)c21 (centres undefined) | inactive: 0.793%
7 | CCn1c(SCc2ccccc2F)nc(=O)c2c(C(=O)OC)cc(C3CC3)nc21 | inactive: -6.84%
8 | Cc1ccc(C)c(N2CCN(C(=O)c3ccc4[nH]c(C)c(C)c4c3)CC2)c1 | inactive: 0.596%
9 | CCOC(=O)C1CCCN(C(=O)Cn2ncc3c([nH]c4ccc(C)cc43)c2=O)C1 (centres undefined) | inactive: 4.65%
10 | Cc1ccc(CCNC(=O)c2ccc(CSCc3ccccc3C)o2)cc1 | inactive: -0.711%
11 | CCC1CN(C(=O)N2CCC(C(=O)O)CC2)c2cc(C)ccc2O1 (centres undefined) | inactive: -5.84%
12 | Cc1ccc2nc(-c3ccc(NC(=O)COc4ccc(Cl)c(C)c4)cc3)sc2c1 | inactive: 16.2%
13 | COc1ccc(Nc2cc(C)c3cc(NC(=O)Cc4c(F)cccc4Cl)ccc3n2)cc1 | inactive: 2.47%
14 | CCN(Cc1ccccc1)C(=O)C1CCN(S(=O)(=O)c2c(C)noc2/C=C/c2ccc(C)cc2)CC1 | inactive: -18%
15 | CCOC(=O)c1ccc(NC(=O)C2CCN(S(=O)(=O)c3ccc(C)cc3)CC2)cc1 | inactive: 4.29%
16 | CC(=O)c1nn(-c2ccc(OC(F)(F)F)cc2)nc1Nc1ccc(C)cc1 | inactive: 3.87%
17 | COc1ccccc1CNC(=O)CS(=O)Cc1nc(-c2ccc(OC)c(OC)c2)oc1C (centres undefined) | inactive: -29.7%
18 | COc1ccccc1CNC(=O)c1sc2nc3n(c(=O)c2c1C)CCC3 | inactive: 1.68%
19 | CCOc1ccc(CNS(=O)(=O)c2ccc(-c3cc(C(F)(F)F)on3)s2)cc1 | inactive: 8.37%
20 | CCOC(=O)c1c(S(=O)(=O)N2CCCC(C(=O)Nc3ccc(C)cc3C)C2)c(C)n(CC)c1C (centres undefined) | inactive: 8.45%
21 | COC(=O)c1ccc(C2c3c(oc4cc(C)c(C)cc4c3=O)C(=O)N2c2ccccn2)cc1 (centres undefined) | inactive: -0.0786%
22 | Cc1cc(C)c(NC(=O)CSc2nnc3[nH]c(=O)cc(C)n23)c(C)c1 | inactive: -4.53%
23 | O=c1c2ccccc2n2c(-c3ccc(F)c(F)c3)nnc2n1CCc1ccccc1 | inactive: 3.99%
24 | CCOC(=O)c1ccccc1NC1(c2ccc(OC)cc2)C(=O)c2ccccc2C1=O | inactive: -13.8%
25 | CCC(=O)Nc1ccc2nc(SCC(=O)N3CCc4ccccc43)sc2c1 | inactive: 7.85%

Row | Compound | activity change, negative = cytotoxicity
26 | COc1ccc(CCC(=O)NC2CC(=O)N(c3ccc(C)c(C)c3)C2)cc1 (centres undefined) | inactive: 10.1%
27 | Cc1ccc(NC(=O)c2sc3nc(-c4ccc(F)cc4)cn3c2C)c(C)c1 | inactive: 9.38%
28 | O=C(NCc1ccc(Cl)cc1)C(=O)NCC(c1ccco1)S(=O)(=O)c1cccs1 (centres undefined) | inactive: -22.7%
29 | CCCCNC(=O)c1ccc2c(=O)n(-c3ccccc3)c(=O)[nH]c2c1 | inactive: 2.17%
30 | CCOc1ccc(S(=O)(=O)Nc2ccc3c(c2)c(C(C)=O)c(C)n3S(=O)(=O)c2ccc(OCC)cc2)cc1 | inactive: -22.3%
31 | Cc1cc(C)c(NC(=O)Cn2c(=O)n(CCC(=O)NCc3ccc4c(c3)OCO4)c(=O)c3ccccc32)c(C)c1 | inactive: -1.27%
32 | CC(=O)Nc1ccc(C(=O)CSc2nnc3cc(C)c4ccccc4n23)cc1 | inactive: 3.6%
33 | CCc1ccc(NC(=O)C2CCCN(S(=O)(=O)c3c(C)[nH]c(=O)[nH]c3=O)C2)cc1 (centres undefined) | inactive: 16%
34 | COC(=O)c1ccc(Cn2nc(-c3ccc(C)c(C)c3)ccc2=O)cc1 | inactive: -2.85%
35 | O=C(CCS(=O)(=O)c1cc2c3c(c1)CCN3C(=O)CC2)NCc1ccc(F)cc1 | inactive: 19.9%
36 | COCCc1nn2c(=O)cc(COC(=O)COc3ccccc3C)nc2s1 | inactive: 9.22%
37 | COc1ccc(Cl)cc1Nc1ncnc2c1nc1n2CCCC1 | inactive: 6.23%
38 | O=C(Nc1noc2ccccc12)c1cccc(F)c1 | inactive: 19.7%
39 | CC(C)c1ccc(NC(=O)C2CCCN(S(=O)(=O)c3cccc4nonc34)C2)cc1 (centres undefined) | inactive: 6.04%
40 | O=C1C(c2ccc(F)cc2)N(CCc2ccccc2)C(=O)CN1C1CCCCC1 (centres undefined) | inactive: -8.59%
41 | COc1ccc(CN(C(=O)Nc2ccc(C)c(F)c2)C2CCN(C(C)=O)CC2)cc1 | inactive: 8.07%
42 | CC(C)c1ccc(C(=O)Nc2cccc3cccnc23)cc1 | inactive: 16.8%
43 | CCc1ccc(NC(=O)Cn2nnc(C(=O)NCc3ccco3)c2N)cc1 | inactive: -0.237%
44 | Cc1ccccc1C(=O)Nc1nnc(SCc2cc(=O)c3c(C)ccc(C)c3[nH]2)s1 | inactive: -20.1%
45 | COc1cccc(COC(=O)c2ccc(-c3nnn(Cc4ccccc4)n3)cc2)c1 | inactive: -1.29%
46 | CC1CCN(S(=O)(=O)c2cc(C(=O)NCc3ccc(F)cc3)n(C)c2)CC1 | inactive: 10.2%
47 | CCC1CN(C(=O)N2CCC(C(=O)NCCOC)CC2)c2ccccc2O1 (centres undefined) | inactive: -5%
48 | Cc1ccc(NC(=O)CCS(=O)(=O)c2ccc3nc(C)sc3c2)cc1 | inactive: 5.99%
49 | CCOc1ccc(CCNS(=O)(=O)c2c(C)nc3sc(C)cn3c2=O)cc1OCC | inactive: 16.6%

Source: PubChem BioAssay AID1508642 (National Center for Advancing Translational Sciences (NCATS), 2021)
